In patent US6811967B2 (The University of Manitoba, priority 2001, dated 2004):

Target: spermidine/spermine N1-acetyltransferase (SSAT) (Mus musculus, UniProt P48026)
Test: Spermidine acetylation assay with mouse liver 100,000xg supernatant
Assay type: biochemical
Set-up: from tissue; host or cells: liver 100,000xg supernatant of transgenic and non-transgenic male CD2F1 mice
Conditions: transgenic mouse liver supernatant, mean±SE, n=10 different mice

spermidine/spermine N1-acetyltransferase (SSAT), sequence (P48026 whole entry): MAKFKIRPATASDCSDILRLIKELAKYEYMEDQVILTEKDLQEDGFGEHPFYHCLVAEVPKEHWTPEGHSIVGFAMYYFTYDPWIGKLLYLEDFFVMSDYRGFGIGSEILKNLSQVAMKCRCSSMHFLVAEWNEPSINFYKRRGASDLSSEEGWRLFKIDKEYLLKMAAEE

Compound: NCCCCNCCCN [spermidine]
- Vmax of spermidine acetylation: 0.009±0.002 nmol/min/mg protein
